# Numbering of substitutions follows the chain as printed; changes in the protein carry UniProt numbers. The list shows a part of the results.
# T1: RBFOX1 RRM RbFoxmut (Fox-RRM*) (Homo sapiens, UniProt Q9NWB1 109-208, R118D;E147R;N151S;E152T)
# T1 sequence: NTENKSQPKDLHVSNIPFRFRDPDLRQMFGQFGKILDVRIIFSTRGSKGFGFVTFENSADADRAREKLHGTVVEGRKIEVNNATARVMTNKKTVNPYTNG
# B1: AGUGUUC (DNA:RNA)
# RNA: GGGAGACCGGAAUUCAGAUUGUCCAGUGUUCUUAAAUCCCGUCGUAGCCACCA
# DNA 1: CAATCTGAATTCCGGTCTCCC
# DNA 2: TGGTGGCTACGACGGGATT
# B2: UUAAGUU (DNA:RNA)
# RNA: B1 RNA with A25U, G26U, U27A, G28A, U29G, C31U
# DNA 1: CAATCTGAATTCCGGTCTCCC
# DNA 2: TGGTGGCTACGACGGGATT
# B3: CCGGGGU (DNA:RNA)
# RNA: B1 RNA with A25C, G26C, U27G, U29G, U30G, C31U
# DNA 1: CAATCTGAATTCCGGTCTCCC
# DNA 2: TGGTGGCTACGACGGGATT
# B4: GUCACCU (DNA:RNA)
# RNA: GGGAGACCGGAAUUCAGAUUGUCCGUCACCUUUAAAUCCCGUCGUAGCCACCA
# DNA 1: CAATCTGAATTCCGGTCTCCC
# DNA 2: TGGTGGCTACGACGGGATT
# B5: UAGUGUC (DNA:RNA)
# RNA: B1 RNA with A25U, G26A, U27G, G28U, U29G
# DNA 1: CAATCTGAATTCCGGTCTCCC
# DNA 2: TGGTGGCTACGACGGGATT
# B6: GUGUCCU (DNA:RNA)
# RNA: B4 RNA with C27G, A28U
# DNA 1: CAATCTGAATTCCGGTCTCCC
# DNA 2: TGGTGGCTACGACGGGATT
# B7: CCAACAU (DNA:RNA)
# RNA: B4 RNA with G25C, U26C, C27A, C30A
# DNA 1: CAATCTGAATTCCGGTCTCCC
# DNA 2: TGGTGGCTACGACGGGATT
# B8: AGUCCGG (DNA:RNA)
# RNA: B1 RNA with G28C, U29C, U30G, C31G
# DNA 1: CAATCTGAATTCCGGTCTCCC
# DNA 2: TGGTGGCTACGACGGGATT
# B9: AUCGUCU (DNA:RNA)
# RNA: B4 RNA with G25A, A28G, C29U
# DNA 1: CAATCTGAATTCCGGTCTCCC
# DNA 2: TGGTGGCTACGACGGGATT
# B10: GUCCAAC (DNA:RNA)
# RNA: B4 RNA with A28C, C29A, C30A, U31C
# DNA 1: CAATCTGAATTCCGGTCTCCC
# DNA 2: TGGTGGCTACGACGGGATT
# B11: GUGGACA (DNA:RNA)
# RNA: B4 RNA with C27G, A28G, C29A, U31A
# DNA 1: CAATCTGAATTCCGGTCTCCC
# DNA 2: TGGTGGCTACGACGGGATT
# B12: UGCUUGU (DNA:RNA)
# RNA: B1 RNA with A25U, U27C, G28U, U30G, C31U
# DNA 1: CAATCTGAATTCCGGTCTCCC
# DNA 2: TGGTGGCTACGACGGGATT
# B13: ACACAUU (DNA:RNA)
# RNA: B1 RNA with G26C, U27A, G28C, U29A, C31U
# DNA 1: CAATCTGAATTCCGGTCTCCC
# DNA 2: TGGTGGCTACGACGGGATT
# B14: CGCAAUG (DNA:RNA)
# RNA: B1 RNA with A25C, U27C, G28A, U29A, C31G
# DNA 1: CAATCTGAATTCCGGTCTCCC
# DNA 2: TGGTGGCTACGACGGGATT
# B15: GCAACUC (DNA:RNA)
# RNA: B4 RNA with U26C, C27A, C30U, U31C
# DNA 1: CAATCTGAATTCCGGTCTCCC
# DNA 2: TGGTGGCTACGACGGGATT
# B16: AGGAAUU (DNA:RNA)
# RNA: B1 RNA with U27G, G28A, U29A, C31U
# DNA 1: CAATCTGAATTCCGGTCTCCC
# DNA 2: TGGTGGCTACGACGGGATT
# B17: UCGACUC (DNA:RNA)
# RNA: B1 RNA with A25U, G26C, U27G, G28A, U29C
# DNA 1: CAATCTGAATTCCGGTCTCCC
# DNA 2: TGGTGGCTACGACGGGATT
# B18: CUCUCAA (DNA:RNA)
# RNA: B4 RNA with G25C, A28U, C30A, U31A
# DNA 1: CAATCTGAATTCCGGTCTCCC
# DNA 2: TGGTGGCTACGACGGGATT
# B19: AUGUCCG (DNA:RNA)
# RNA: B4 RNA with G25A, C27G, A28U, U31G
# DNA 1: CAATCTGAATTCCGGTCTCCC
# DNA 2: TGGTGGCTACGACGGGATT
# B20: UCUACCA (DNA:RNA)
# RNA: B4 RNA with G25U, U26C, C27U, U31A
# DNA 1: CAATCTGAATTCCGGTCTCCC
# DNA 2: TGGTGGCTACGACGGGATT
# Target: T1, RBFOX1 RRM RbFoxmut (Fox-RRM*)
# Assay: EMSA; HiTS-Eq, 1 nM pool, 10 min; buffer printed only for the single-RNA assays: 10 mM Tris pH 7.5, 150 mM NaCl, 3.4 mM EDTA, 0.001% NP-40, 30 C
# Conditions: tags: His6 N-terminal (pET28a); label: 5' 32P
# Outline: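 A pool of RNA with 7 randomized nucleotides, 5′-radiolabelled and with DNA-annealed flanks, was equilibrated at 1 nM for 10 min in 50 µL with purified RbFox RRM, wild type or mutant, across increasing protein concentrations. Free RNA was separated by 8% native PAGE, excised, reverse-transcribed, barcoded by PCR and sequenced. Relative association constants were obtained from read-count changes of each RNA species versus the control reaction and normalised to the cognate motif.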
row,Binder,binding signal
1,B1,0.115 KA relative to UGCAUGU
2,B2,0.0893 KA relative to UGCAUGU
3,B3,0.123 KA relative to UGCAUGU
4,B4,0.0536 KA relative to UGCAUGU
5,B5,0.238 KA relative to UGCAUGU
6,B6,0.0761 KA relative to UGCAUGU
7,B7,0.141 KA relative to UGCAUGU
8,B8,0.104 KA relative to UGCAUGU
9,B9,0.089 KA relative to UGCAUGU
10,B10,0.0654 KA relative to UGCAUGU
11,B11,0.0497 KA relative to UGCAUGU
12,B12,0.428 KA relative to UGCAUGU
13,B13,0.081 KA relative to UGCAUGU
14,B14,0.126 KA relative to UGCAUGU
15,B15,0.0418 KA relative to UGCAUGU
16,B16,0.0999 KA relative to UGCAUGU
17,B17,0.0668 KA relative to UGCAUGU
18,B18,0.0667 KA relative to UGCAUGU
19,B19,0.14 KA relative to UGCAUGU
20,B20,0.077 KA relative to UGCAUGU

# Source: article PMC9911399, “Two distinct binding modes provide the RNA-binding protein RbFox with extraordinary sequence specificity”
